The whole screen tested about 45,000 compounds, of which about 65 (0.1%) were called active. Calls come from the whole dose curve; as a rule, active = well fitted activation curve with a large enough effect; inconclusive = small, poorly fitted or top-dose-only effect; inactive = no such curve, though single readings can be large or run the other way. The list shows a part of the results.
What follows are compounds tested against Galactocerebrosidase (Homo sapiens) (UniProt P54803) (assay: A Novel Cell-Based Assay to Identify Small Molecules for B -Galactocerebrosidase). Details: 145M-Twi-hGALC-G270D cells (Twitcher mouse brain line with human GALC G270D), HMU-beta-Gal fluorescence, 48 h; series mostly up to 57.5 µM; activation: at the top concentration.
Sequence of UniProt P54803 (P54803 whole entry, looked up): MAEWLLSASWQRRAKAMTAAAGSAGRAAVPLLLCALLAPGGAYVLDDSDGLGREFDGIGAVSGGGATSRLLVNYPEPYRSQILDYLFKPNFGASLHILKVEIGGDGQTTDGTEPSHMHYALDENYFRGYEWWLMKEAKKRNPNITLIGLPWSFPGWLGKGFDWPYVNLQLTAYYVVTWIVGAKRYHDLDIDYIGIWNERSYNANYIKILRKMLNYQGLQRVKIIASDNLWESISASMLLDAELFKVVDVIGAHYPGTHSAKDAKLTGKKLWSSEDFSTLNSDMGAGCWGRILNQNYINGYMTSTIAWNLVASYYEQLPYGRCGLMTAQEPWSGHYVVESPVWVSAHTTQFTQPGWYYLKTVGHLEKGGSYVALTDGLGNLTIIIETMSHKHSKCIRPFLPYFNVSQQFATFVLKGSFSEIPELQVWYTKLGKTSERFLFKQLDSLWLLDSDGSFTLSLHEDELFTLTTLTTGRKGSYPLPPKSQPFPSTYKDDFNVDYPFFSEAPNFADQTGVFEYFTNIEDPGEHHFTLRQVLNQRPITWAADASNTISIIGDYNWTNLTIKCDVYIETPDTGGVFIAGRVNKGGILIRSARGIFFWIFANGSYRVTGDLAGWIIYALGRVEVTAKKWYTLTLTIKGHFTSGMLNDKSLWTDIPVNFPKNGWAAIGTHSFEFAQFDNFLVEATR
Method in brief: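 Mutant human GALC (G270D), stably expressed in a Twitcher mouse brain cell line lacking endogenous GALC, is measured in live-treated cells via 6-hexadecanoylamino-4-methylumbelliferyl-β-galactoside hydrolysis (0.1 mM final, pH 5.2) with fluorescent detection.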
`COC(=O)C(NC(=O)CCc1c(C)nc2cc(-c3cccc(F)c3)nn2c1C)C(C)C` (stereo not drawn) was tested, and the “activation” value was inactive: -12.4%.
With `Cc1ccc2c(=O)cc(C(=O)Nc3ccc(S(=O)(=O)N4CCCCC4)cc3)oc2c1` the “activation” value was inactive: -19.1%.
With `COc1cccc(N2CCN(C(=O)c3cc4c(=O)n(Cc5cccnc5)ccc4nc3C)CC2)c1` the “activation” value was inactive: -5.71%.
In the case of `COc1ccc(NC(=O)Cn2c(SCc3ccc(F)cc3)nc3cccnc32)c(OC)c1`, the “activation” value is reported as inactive: -9.7%.
For `CCOc1ccc(C(=O)Nc2nc(-c3ccc(Br)cc3)ns2)cc1`, the “activation” value was inactive: -10.8%.
`CC1CCn2c(nc3cc(C(=O)NCCc4ccccc4)ccc32)C1` (stereo not drawn) was tested, and the “activation” value was inactive: -27.3%.
With `Cc1ccc(NC(=O)CSc2cn(CC(=O)N3CCOCC3)c3ccccc23)cc1Cl` the “activation” value was inactive: -3.51%.
With `COc1ccc(NC(=O)C2CCCN(c3cnccn3)C2)c(OC)c1` (stereo not drawn) the “activation” value was inactive: 0.179%.
`CCC(Cc1ccccc1)NC(=O)CCS(=O)(=O)c1cc2c(cc1Cl)NC(=O)CO2` (stereo not drawn) was tested, and the “activation” value was inactive: -17.1%.
`CCOc1ccc(CNC(=O)Nc2ccc3c(c2)N(C)C(=O)c2ccccc2S3)cc1` was tested, and the “activation” value was inactive: -28%.
`O=S(=O)(c1ccccc1)c1nnn2c1nc(N1CCN(c3ccccc3)CC1)c1cc(Cl)ccc12` was tested, and the “activation” value was inactive: -12%.
`COc1ccc2sc(N(Cc3cccnc3)C(=O)C3COc4ccccc4O3)nc2c1` (stereo not drawn) was tested, and the “activation” value was inactive: -1.6%.
For `Cc1ccc(-n2ncc3c(NC4CCCC4)ncnc32)cc1`, the “activation” value was inactive: -9.24%.
In the case of `CCOC(=O)/C(C#N)=C/c1ccc(-c2ccccc2)o1`, the “activation” value is reported as inactive: -7.03%.
In the case of `N=C(N)c1ccc(OCCCCCOc2ccc(C(=N)N)cc2)cc1`, the “activation” value is reported as inactive: -18.3%.
In the case of `COc1ccc2sc(N(Cc3cccnc3)C(=O)c3cccs3)nc2c1`, the “activation” value is reported as inactive: -14.4%.
`Cc1ccc2c(c1)C(c1ccccc1)N(C(=O)c1ccc(S(=O)(=O)N3CCCC3)cc1)CC(=O)N2` (stereo not drawn) was tested, and the “activation” value was inactive: -12.7%.
For `Cn1c(=O)c2nc3ccc(NC(=O)C(F)(F)F)cc3nc2n(C)c1=O`, the “activation” value was inactive: -11.3%.
In the case of `Cc1ccc(NC(=O)CN2C(=O)CSc3ccc(S(=O)(=O)N(C)C)cc32)c(C)c1`, the “activation” value is reported as inactive: -5.67%.
In the case of `Cc1nc(SCc2ccccc2Cl)c(C#N)c(C)c1C`, the “activation” value is reported as inactive: -14.7%.
In the case of `Cc1cc(C)cc(NC(=O)c2sc3nc4n(c(=O)c3c2C)N=C(c2ccc(F)cc2)CS4)c1`, the “activation” value is reported as inactive: -15.6%.
With `O=C(Cn1cc2c(n1)CCCC2)Nc1cc(C(F)(F)F)ccc1Cl` the “activation” value was inactive: -11.3%.
With `CCCn1cc(S(=O)(=O)c2ccccc2)c(=O)c2cc(F)c(N3CCCCCC3)cc21` the “activation” value was inactive: -7.46%.
In the case of `COc1cccc(-c2nn(C)c3sc(C(=O)NCCc4cccc(C)c4)cc23)c1`, the “activation” value is reported as inactive: -4.8%.
In the case of `Cc1nnc(N2CCN(c3cccc(Cl)c3)CC2)c2c1nnn2Cc1ccc(F)cc1`, the “activation” value is reported as inactive: -9.67%.
In the case of `CCc1cccc(NC(=O)CSc2n[nH]c(-c3ccccc3Cl)n2)c1`, the “activation” value is reported as inactive: -14.6%.
In the case of `O=C(Nc1ccc2nc(SCCOc3ccccc3Cl)sc2c1)c1ccco1`, the “activation” value is reported as inactive: -8.35%.
In the case of `Cn1c(NCCN(CCO)CCCc2ccc([N+](=O)[O-])cc2)cc(=O)n(C)c1=O`, the “activation” value is reported as inactive: -16.8%.
With `CCOC(=O)C1CCCN(C(=O)Cn2ncc3c(C)n(Cc4ccc(F)cc4)c(C)c3c2=O)C1` (stereo not drawn) the “activation” value was inactive: -3.1%.
`CCOc1ccc(OCC)c(NC(=O)c2cnn(-c3ccc(F)cc3)c2C2CCN(C(=O)OC(C)(C)C)CC2)c1` was tested, and the “activation” value was inactive: -15.2%.
With `CCCNC(=O)Cn1ncc2c3ccccc3n(CCC)c2c1=O` the “activation” value was inactive: -4.57%.
`COc1ccc(-c2ccc(-c3noc(-c4cc(OC)cc(OC)c4)n3)c(OC)n2)cc1` was tested, and the “activation” value was inactive: -13.7%.
In the case of `COC(=O)Nc1nc2ccc(C(=O)c3ccccc3)cc2[nH]1`, the “activation” value is reported as inactive: -9.67%.
`CCOc1ccc(-n2c(C)nc3cc(C(=O)NCc4ccc(C)cc4)ccc32)cc1` was tested, and the “activation” value was inactive: -34.9%.
For `COc1ccc(-n2ccnc(NCc3cccs3)c2=O)cc1`, the “activation” value was inactive: -6.66%.
In the case of `CCOc1ccc2c(c1)c(=O)c(C(=O)c1ccc3c(c1)OCO3)cn2Cc1cccc(F)c1`, the “activation” value is reported as inactive: -12.2%.
With `O=c1c2c3c(sc2nnn1Cc1ccc(F)cc1)CCCC3` the “activation” value was inactive: -17.6%.
With `CC1CCCN(c2nc(-c3ccccc3O)nc3ccccc23)C1` (stereo not drawn) the “activation” value was inactive: -7.35%.
`CCn1c(=O)cc(SCC(=O)Nc2cc(Cl)ccc2OC)c2ccccc21` was tested, and the “activation” value was inactive: -11.1%.
In the case of `Cc1ccc(C(=O)Nc2nnc(S(=O)(=O)N(C)Cc3ccc(F)cc3)s2)cc1`, the “activation” value is reported as inactive: -4.43%.
`CCOc1ccc(-c2nnc(SCC(=O)Oc3ccccc3)o2)cc1` was tested, and the “activation” value was inactive: -1.83%.
For `CCN(C(=O)Cn1nc(Cc2ccncc2)c2ccccc2c1=O)c1cccc(Cl)c1`, the “activation” value was inactive: -11.7%.
`COc1ccc(CCNC(=O)CN2C(=O)COc3ccc(C)cc32)cc1OC` was tested, and the “activation” value was inactive: -3.82%.
With `COc1ccccc1N(CC(=O)N1CCC(C)CC1)S(=O)(=O)c1ccc(C)cc1` the “activation” value was inactive: -30.8%.
For `c1ccc2sc(SSc3nc4ccccc4s3)nc2c1`, the “activation” value was inactive: -11.7% [at 23.8 µM].
In the case of `CCCCN(CC)CCCNC(=O)CN1C(=O)CSc2ccc(S(=O)(=O)N3CCOCC3)cc21`, the “activation” value is reported as inactive: -10.9%.
`CCOC(=O)c1cc(-c2ccc(OC)c(S(=O)(=O)NC3CCCCC3)c2)on1` was tested, and the “activation” value was inactive: -15.4%.
In the case of `CCn1nc(C)c(CCN(C)C(=O)Nc2ccc(C)c(Cl)c2)c1C`, the “activation” value is reported as inactive: -1.67%.
`Cc1ccc(C(=O)NCc2ccc3c(c2)CCN3C(=O)c2ccc(C)cc2)cc1` was tested, and the “activation” value was inactive: -17.2%.
For `COCCNC(=O)c1ccc(-n2c(-c3ccccc3)cc3c2CCC(C)C3)cc1` (stereo not drawn), the “activation” value was inactive: -16%.
For `CCc1ccc(Cn2c(CNS(=O)(=O)c3ccc([N+](=O)[O-])cc3)nc3cccnc32)cc1`, the “activation” value was inactive: -23.8%.
`O=C(Nc1ccc2nc3n(c(=O)c2c1)CCCCC3)C(=O)Nc1ccccc1F` was tested, and the “activation” value was inactive: -2.47%.
With `COc1cc(NC(=O)c2nn(C)c3c2CS(=O)(=O)c2ccccc2-3)cc(OC)c1` the “activation” value was inactive: -11.4%.
With `COCCCNC(=O)c1c(-c2ccccc2)c(-c2ccccc2)nn(C)c1=O` the “activation” value was inactive: -3.09%.
In the case of `Cc1cccc(Nc2nn3c(=O)c4cc5c(cc4nc3s2)OCO5)c1`, the “activation” value is reported as inactive: -8.61%.
In the case of `COc1cc(N2C(=O)CSC23C(=O)N(Cc2cccc(F)c2)c2ccccc23)cc(OC)c1OC` (stereo not drawn), the “activation” value is reported as inactive: -28.2%.
`COc1ccc(NC(=O)c2sc3nc4c(cc3c2N)CCCCCC4)c(OC)c1` was tested, and the “activation” value was inactive: -23.8%.
In the case of `CCOC(=O)Cn1c(=O)n(CC2CCCO2)c2nc(-c3ccc(OCC)cc3)nc(C(N)=O)c21` (stereo not drawn), the “activation” value is reported as inactive: -10.2%.
With `CCN(CC)CCNC(=O)CN1C(=O)COc2ccc(S(=O)(=O)N3CCOCC3)cc21` the “activation” value was inactive: 2.76%.
In the case of `Cc1cc(Nc2cccc(Cl)c2)nc2ccc(NC(=O)Cc3ccc(Cl)cc3)cc12`, the “activation” value is reported as inactive: -8.24%.
`Cc1ccc(-n2ncc(C(=O)NCc3ccccc3)c2C2CCN(C(=O)OC(C)(C)C)CC2)cc1` was tested, and the “activation” value was inactive: 5.42%.
With `COc1ccc(CCNC(=O)c2ccc3c(c2)CCN3S(=O)(=O)c2ccccc2)cc1OC` the “activation” value was inactive: -3.62%.
`CCOc1ccccc1NC(=O)Cn1c(=O)n(Cc2ccccc2)c(=O)c2c1c1cc(C)ccc1n2C` was tested, and the “activation” value was inactive: -2.26%.

Reference: PubChem BioAssay AID1159614 (National Center for Advancing Translational Sciences (NCATS), 2016)
Note: 0% is about no effect; nearly all actives have a fitted effect of over 65% in size.
